Measurements published in the supplement of paper PMC3334620.
Whole data set: some 33,000 sequences, median “E-score (-0.5 to 0.5)” near -0.041, cut for the highest 2% near 0.37. The list shows a part of the results.

Biological target: T1, Ecm22 (UniProt Q05958)
T1 sequence: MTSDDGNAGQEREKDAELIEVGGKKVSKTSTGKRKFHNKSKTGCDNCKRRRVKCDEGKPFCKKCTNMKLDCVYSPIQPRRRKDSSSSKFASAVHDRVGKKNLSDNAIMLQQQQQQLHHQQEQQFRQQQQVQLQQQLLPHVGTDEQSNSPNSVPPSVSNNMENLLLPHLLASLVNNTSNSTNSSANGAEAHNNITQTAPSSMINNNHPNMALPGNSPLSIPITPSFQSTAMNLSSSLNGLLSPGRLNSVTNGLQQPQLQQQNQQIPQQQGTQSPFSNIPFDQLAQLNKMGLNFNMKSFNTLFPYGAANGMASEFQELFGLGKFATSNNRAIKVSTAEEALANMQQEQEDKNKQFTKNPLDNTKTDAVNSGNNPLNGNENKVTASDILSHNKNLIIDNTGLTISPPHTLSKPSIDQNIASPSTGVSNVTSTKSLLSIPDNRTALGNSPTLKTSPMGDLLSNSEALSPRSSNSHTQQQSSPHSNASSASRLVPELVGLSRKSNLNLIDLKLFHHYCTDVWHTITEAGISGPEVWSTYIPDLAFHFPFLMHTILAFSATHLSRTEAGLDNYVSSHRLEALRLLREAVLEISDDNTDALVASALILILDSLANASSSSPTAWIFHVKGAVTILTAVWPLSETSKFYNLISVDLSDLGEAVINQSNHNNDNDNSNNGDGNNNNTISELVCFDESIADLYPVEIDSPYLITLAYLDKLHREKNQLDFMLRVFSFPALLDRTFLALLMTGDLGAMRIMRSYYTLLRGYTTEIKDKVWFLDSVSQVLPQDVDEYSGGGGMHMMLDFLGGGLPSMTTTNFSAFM
Experiment: PBM E-score (8-mer binding enrichment) (E-score (-0.5 to 0.5)); higher = stronger / more preferred TF binding; most listed sequences are background and not binding sites
Conditions: protein concentration: 200 nM; construct: GST-full length
Outline: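 The E-score, a modified Wilcoxon-Mann-Whitney statistic, was computed by the Universal PBM Analysis Suite for every ungapped eight-base word pooled with its reverse complement. Scans behind it were normalised with masliner after bound GST-tagged yeast transcription factors were detected with fluorescent anti-GST. The proteins, at about 100-200 nM, had been applied to universal all-10-mer Agilent arrays made double-stranded by primer extension.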

| Sequence | PBM E-score |
| --- | --- |
| CATAAAAC | -0.0347 |
| AAAATTCC | -0.197 |
| GATGCGAC | 0.2 |
| GTTTCCCA | -0.0496 |
| ACTTGCCT | -0.216 |
| CACGAAGC | 0.0604 |
| CGCGGCAC | 0.0802 |
| CCGAGGAC | 0.207 |
| GAAACGTA | 0.221 |
| GTGGCGAA | 0.0222 |
| GAACAGCA | -0.083 |
| ACAGTCGT | 0.28 |
| AAGCGACT | 0.242 |
| GCTCAACA | -0.0472 |
| ATGACAAC | -0.0209 |
| TGCATAAA | 0.00876 |
| AGGACCTC | -0.0323 |
| GGTTGTCA | -0.195 |
| AAGACTCT | -0.0807 |
| ACGGGGTA | 0.188 |
| AGTTCCGA | 0.226 |
| ACTTCGTC | 0.00917 |
| GCATTTGA | 0.11 |
| CCGACTTC | -0.0231 |
| CTTGCTGA | -0.204 |

| Sequence | PBM E-score |
| --- | --- |
| CACCGCCC | 0.085 |
| CCTATAGG | -0.432 |
| ACACGGAT | 0.203 |
| CGAGTGTA | 0.262 |
| CGCGAGTC | 0.186 |
| CTAGGACA | -0.321 |
| AAGCTTCA | -0.0703 |
| ACAATACT | -0.0129 |
| CTTAATCA | 0.016 |
| AACGTTGC | 0.121 |
| AGCAGCGA | 0.0533 |
| ACGACATA | 0.308 |
| GCAAACCC | 0.0386 |
| AAACGGGT | 0.319 |
| GTAAGGGA | -0.0737 |
| ATAGACGA | 0.174 |
| CCATGAAG | 0.0231 |
| GCGCGCCC | -0.172 |
| GCGCACTA | 0.0347 |
| AAGTGAAA | -0.129 |
| ACTATTGC | -0.0693 |
| CTACAACA | -0.103 |
| AGGATGTC | -0.112 |
| GAAACATA | 0.215 |
| CGATGACA | 0.082 |

| Sequence | PBM E-score |
| --- | --- |
| CTGGCGGA | -0.243 |
| CTAGCCCA | -0.374 |
| CGCTCACA | 0.18 |
| AGGACCTG | -0.128 |
| AGTTCAGA | -0.126 |
| ATCAGCTA | -0.0785 |
| CCGTCTGA | -0.0597 |
| CCGTTTGA | 0.243 |
| ACTTAAGA | -0.057 |
| GTGCGGCA | -0.0606 |
| ACAATAGC | -0.16 |
| TCAGGAGA | -0.0607 |
| CCGTAACG | 0.28 |
| ACGGTATA | 0.118 |
| GAGGTAAA | 0.174 |
| GAGGGAAC | 0.126 |
| AACGTGTC | -0.00337 |
| GGAGAGCC | -0.0815 |
| CCGCTCAC | -0.123 |
| GCTTACAC | 0.0409 |
| ACGTTGGG | -0.134 |
| ATCCTGCC | -0.0749 |
| GGAACAAC | 0.0486 |
| GTCCGCGA | 0.0736 |
| ATCGCCGC | -0.104 |

| Sequence | PBM E-score |
| --- | --- |
| AAGGTGCC | -0.209 |
| GTTGATAA | 0.127 |
| GGCCTCCA | -0.23 |
| ACGGCTTC | 0.104 |
| GAGAATGA | 0.0633 |
| CGACCACG | 0.257 |
| CTGCAGCC | 0.0309 |
| AAGCTGAA | -0.238 |
| GGAGCACC | -0.0878 |
| ACTTGCCG | -0.00724 |
| ATCGAGTG | 0.137 |
| AGTATGGC | -0.0838 |
| CTGACAAC | -0.206 |
| AGGTTTCG | 0.0268 |
| ATCAGGAC | -0.159 |
| GGACGGCA | -0.0901 |
| CGGATCGC | 0.12 |
| GTGTGACA | -0.117 |
| GGAAGGCA | -0.24 |
| CCATTTTA | 0.0645 |
| AATGCGCC | 0.0324 |
| CGTGGCCA | -0.162 |
| AACTTTCT | -0.201 |
| ATTTCTCC | -0.109 |
| ATAGTAGC | 0.127 |

| Sequence | PBM E-score |
| --- | --- |
| CTACTAGA | -0.0477 |
| CCCTTTAG | -0.319 |
| TAATGCAA | -0.185 |
| ATCTCTCC | -0.0913 |
| AAGACGAA | 0.059 |
| CTAACCAG | -0.241 |
| CAAATATG | 0.0122 |
| GATCAATC | -0.0134 |
| GCCAACGC | -0.00897 |
| AAACAGGA | -0.137 |
| CAGCGCTG | -0.00531 |
| CCGTAGGA | -0.0721 |
| AAGTCTGT | -0.114 |
| CTACCGTA | 0.231 |
| ACCGTTTC | 0.187 |
| GACCGCCC | -0.0157 |
| CGGGTTGC | 0.0581 |
| ATACGAAG | 0.466 |
| AAATAAAC | 0.24 |
| CCGACAGC | 0.0258 |
| AGAGTCTC | -0.0866 |
| CCGCAATC | 0.06 |
| AGGGGATA | -0.0724 |
| CCTTAACA | -0.126 |
| ATTTAGTG | 0.0163 |

| Sequence | PBM E-score |
| --- | --- |
| CTACTCCC | -0.136 |
| ATGATATA | -0.0173 |
| AGGTGTAT | -0.0483 |
| ACGGTTAC | 0.255 |
| ATAGCACA | -0.00652 |
| CTTGGGAC | -0.218 |
| CGTAAACG | 0.444 |
| ATACAAAT | 0.126 |
| TAATAGCA | -0.0182 |
| AGACGAAT | 0.0921 |
| ATTTCTTA | 0.155 |
| GCCCCCGA | -0.294 |
| ACTGTTGG | -0.282 |
| ATCTTCCG | 0.101 |
| ACCGATCT | -0.0191 |
| AAGCATCG | 0.128 |
| CGATGAAG | 0.0663 |
| GTGGAGAA | -0.121 |
| TACGCGTA | 0.237 |
| CCTTCGCA | 0.183 |
| GTTCCCTA | 0.232 |
| ACTACGAA | 0.25 |
| GCTACCTA | -0.156 |
| GTGATGCA | -0.0499 |
| AAACGGCC | 0.29 |

| Sequence | PBM E-score |
| --- | --- |
| CGGGTTGA | 0.0529 |
| CCTGGAAA | -0.139 |
| ACGCAACA | 0.107 |
| GATCACCA | -0.0271 |
| CTCAGCAC | -0.14 |
| CACCAGCA | -0.028 |
| ATGGCTGG | -0.136 |
| ACATCCGT | 0.181 |
| CCGGGGTC | -0.056 |
| ATCAAGGC | 0.0443 |
| TGGTGTAA | -0.028 |
| CACTCCCA | -0.194 |
| AACTAAAA | -0.116 |
| AAACTACG | 0.201 |
| AACGTATA | 0.411 |
| CGCATGAG | -0.0679 |
| ATTACAAT | 0.0334 |
| ATTCGTCG | 0.135 |
| CGTTCGAA | 0.244 |
| CCCCTCGC | 0.162 |
| AATGCAGA | -0.0678 |
| GGACTACA | -0.249 |
